According to PubChem BioAssay AID504845 (National Center for Advancing Translational Sciences (NCATS), 2011):
Screen size: about 390,000 compounds; about 150 (0.038%) were called active. The inconclusive results got no clear call from the source; some entries with a clear call stand among them for comparison. The call rests on the fitted dose curve; in most records, active means well fitted inhibition curve with a large enough effect; inconclusive means small, poorly fitted or top-dose-only effect; inactive means no such curve, though single readings can be large or run the other way. A potency beside an inconclusive call is a rough fit, not a confirmed value.

target: Regulator of G-protein signaling 4 (Homo sapiens) (UniProt P49798); test: Inhibitors of Regulator of G Protein Signaling (RGS) 4: qHTS; details: Transcreener GDP fluorescence polarization, RGS4-accelerated GTP hydrolysis; series mostly up to 114 µM; further: nearly all actives have a fitted effect of over 75% in size
UniProt P49798, sequence (P49798 whole entry, looked up): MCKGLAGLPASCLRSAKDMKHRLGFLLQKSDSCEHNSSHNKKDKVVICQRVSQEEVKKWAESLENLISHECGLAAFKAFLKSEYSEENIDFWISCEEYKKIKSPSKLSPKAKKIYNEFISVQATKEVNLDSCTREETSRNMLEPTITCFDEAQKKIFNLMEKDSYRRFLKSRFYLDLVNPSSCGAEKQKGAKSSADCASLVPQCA
How it was run: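 MLSMR compounds (23 nl, pin-transferred) preincubated 10 min at room temperature with a 500nM (2x) first reagent, then RGS4 at 900nM (2x) plus Transcreener GDP mix added; fluorescence polarization (620/688 nm) read before and after 90 min at 30 °C.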
Potency means the concentration at half of the fitted maximal effect; tags describe the fitted curve by direction and shape.

Row | Compound | Potency
1 | C[CH2][Hg][S]c1ccccc1C(=O)O | inconclusive: 17.8 µM [inhibitor, full curve, poor fit]
2 | COc1ccc(CN2CCN(Cc3ccccc3F)CC2)cc1 | inactive
3 | COc1ccccc1N1C(=O)NC(=O)/C(=C/c2ccc3c(c2)Cc2ccccc2-3)C1=O | inconclusive: 79.4 µM [inhibitor, partial curve, poor fit]
4 | O=C(O)CCC(=O)NCCC1=c2ccccc2=N/C1=C\c1c(O)n(Cc2ccc(F)cc2)c(=S)[nH]c1=O | inconclusive: 28.2 µM [inhibitor, full curve, poor fit]
5 | COc1ccc(Cn2c(O)c(C=NCCCn3ccnc3)c(=O)[nH]c2=O)cc1 | inconclusive: 100 µM [inhibitor, single point]
6 | COc1cc2c(cc1/C=C/[N+](=O)[O-])OCO2 | inconclusive: 79.4 µM [inhibitor, partial curve, poor fit]
7 | CC(Cc1ccccc1Sc1ccccc1)N(C)C (centres undefined) | inactive
8 | O=C1CCc2c(ccc3ccccc23)O1 | inconclusive: 6.7 µM [inhibitor, partial curve, poor fit]
9 | Cc1ccccc1CN1Cc2cnnn2-c2ccccc2C1C#N (centres undefined) | inconclusive: 28.2 µM [inhibitor, full curve, poor fit]
10 | O=C1NC(=O)C2(CCCc3ccc(N(CCCl)CCCl)cc32)N1 (centres undefined) | inactive
11 | O=C(c1cn(Cc2ccccc2)c2ccccc12)C1CC1 | inconclusive: 50.1 µM [inhibitor, partial curve, poor fit]
12 | Cc1[nH]c2ccccc2c1CN1CCCCC1 | inconclusive: 89.1 µM [inhibitor, single point]
13 | COc1ccc(C2SCC(=O)Nc3c2c(=O)[nH]n3C2CCCCC2)cc1 (centres undefined) | inactive
14 | COc1cc(C(=S)N2CCOCC2)cc(OC)c1OC(=O)Cc1ccccc1 | inconclusive: 79.4 µM [inhibitor, partial curve, poor fit]
15 | CCN1C(=O)C(=C/C=C/c2ccco2)C(=O)N(CC)C1=S | inconclusive: 44.7 µM [inhibitor, partial curve, poor fit]
16 | CCOc1cccc(OCC)c2c(C)[n+](CC3CCCO3)c(C)c1-2 (centres undefined) | inconclusive: 79.4 µM [inhibitor, partial curve, poor fit]
17 | COc1ccc(N2CCN(C(=O)c3cc(=O)[nH]c4ccccc34)CC2)cc1 | inconclusive: 56.2 µM [inhibitor, partial curve, poor fit]
18 | CC(=O)c1ccc2c(c1)C1C(Cl)C(Sc3ccccc3[N+](=O)[O-])CC1C(C(=O)O)N2 (centres undefined) | inconclusive: 112 µM [inhibitor, partial curve, poor fit]
19 | C[N+]12CCC(CC1)C(C(O)(c1ccccc1)c1cccs1)C2 (centres undefined) | inactive
20 | [O]=[Sb]([OH])([OH])[c]1ccccc1 | inconclusive: 28.2 µM [inhibitor, full curve, poor fit]

Row | Compound | Potency
21 | CCOC(=O)c1ccc(NC(=O)CSc2ccc(-c3cccnc3)nn2)cc1 | inconclusive: 79.4 µM [inhibitor, single point]
22 | CCOc1nc(NC(C)C)nc(N2CC3CC(C2)c2cccc(=O)n2C3)n1 (centres undefined) | inconclusive: 79.4 µM [inhibitor, partial curve, poor fit]
23 | CN1CCC2(CC1)C(C#N)=C(N)NC(S)=C2C#N | inconclusive: 79.4 µM [inhibitor, partial curve, poor fit]
24 | Cc1cc(C)cc(OCCOc2cccc(C=C3C(=O)NC(=O)NC3=O)c2)c1 | inconclusive: 20 µM [inhibitor, full curve, poor fit]
25 | CCOC(=O)c1ccc(N=C(c2ccccc2)c2c(O)n(C)c(=O)n(C)c2=O)cc1 | inconclusive: 79.4 µM [inhibitor, partial curve, poor fit]
26 | O=c1[nH]c(=O)n(CC2CCCO2)c(O)c1/C=C1\C=Nc2ccccc21 (centres undefined) | inactive
27 | FC(F)(F)c1ccc2c(c1)nnn2C1CCN(Cc2nnnn2Cc2ccccc2)CC1 | inactive
28 | CC(=O)[C@H]1CCC2C3CC[C@H]4C[C@H](O)CC[C@]4(C)C3CC[C@@]21C (some centres undefined) | inconclusive: 11.9 µM [inhibitor, partial curve, poor fit]
29 | COC(=O)c1ccc(NC(=O)CSc2nc3ccc(N4C(=O)C5C6C=CC(C6)C5C4=O)cc3s2)cc1 (centres undefined) | inactive
30 | COc1ccc(-n2c(CN3CCOCC3)nc3ccccc3c2=O)c(OC)c1 | inactive
31 | Cc1ccc(-c2cn3c(=S)[nH]nc3s2)cc1 | inconclusive: 89.1 µM [inhibitor, partial curve, poor fit]
32 | CC(C)C[C@H](NC(=O)[C@H](Cc1ccccc1)NC(=O)CNC(=O)CNC(=O)[C@@H](N)Cc1ccc(O)cc1)C(=O)N[C@@H](CCCN=C(N)N)C(=O)N[C@@H](CCCN=C(N)N)C(=O)N[C@@H](CCC(N)=O)C(=O)N[C@@H](Cc1ccccc1)C(=O)N[C@@H](CCCCN)C(=O)N[C@H](C(=O)N[C@H](C(=O)N[C@H](C(=O)O)[C@@H](C)O)C(C)C)C(C)C | inconclusive: 0.0844 µM [inhibitor, full curve, poor fit]
33 | C=C(C)C1(CCCC)C(=O)NC(=S)NC1=O | inconclusive: 89.1 µM [inhibitor, single point]
34 | Cc1cccc(N2C(=O)NC(=O)/C(=C/c3cc4c(cc3[N+](=O)[O-])OCO4)C2=O)c1 | inconclusive: 17.8 µM [inhibitor, full curve, poor fit]
35 | Cc1nn(Cc2ccccc2)c(C)c1C(=O)OCC(=O)Nc1ccccc1SCC#N | inactive
36 | O=[N+]([O-])c1c(Cl)c(Cl)c(Cl)c(Cl)c1Cl | inactive
37 | Cc1ccnc(-n2c(C)cc(/C=C3\C(=O)NC(=S)N(C)C3=O)c2C)c1 | inconclusive: 44.7 µM [inhibitor, partial curve, poor fit]
38 | C=CCn1c(O)c(/C(C)=N/N2CCCCC2)c(=O)[nH]c1=O | inactive
39 | O=C1NCN(c2ccccc2)C12CCN(CCCOc1ccc(F)cc1)CC2 | inconclusive: 0.844 µM [inhibitor, partial curve, poor fit]
40 | CCCCC1C(=O)NC(=S)N(C)C1=O (centres undefined) | inconclusive: 100 µM [inhibitor, partial curve, poor fit]

Row | Compound | Potency
41 | CC(=O)[C@H]1CC[C@H]2C3CC[C@H]4C[C@H](O)CC[C@]4(C)C3CC[C@]12C (some centres undefined) | inconclusive: 0.597 µM [inhibitor, partial curve, poor fit]
42 | C/C=C/c1ccc2c(c1)OCO2 | inactive
43 | Cc1ccc(N2C(=O)NC(=O)/C(=C\c3cc(C)n(-c4sc5c(c4C#N)CCCC5)c3C)C2=O)cc1 | inconclusive: 79.4 µM [inhibitor, partial curve, poor fit]
44 | COC(=O)C12OCC34C(CC5C(C)=C(O)C(=O)CC5(C)C3C(O)C1O)OC(=O)C(OC(=O)/C=C(\C)C(C)C)C24 (centres undefined) | inconclusive: 79.4 µM [inhibitor, partial curve, poor fit]
45 | O=C1NC(=O)C(=Cc2ccc(Oc3ccc([N+](=O)[O-])cc3)cc2)C(=O)N1 | inconclusive: 28.2 µM [inhibitor, full curve, poor fit]
46 | COC1CCC(OC2CC(C3(C)CCC4(CC(O)C(C)C(C(C)/C=C(\C)C(=O)C(C)CC(C)C(=O)O)O4)O3)OC3(OC(C4OC(O)(CO)C(C)CC4C)CC3C)C2C)OC1C (centres undefined) | inactive
47 | CC1=CC(=O)NP(=O)(Oc2ccc3ccccc3c2)N1 (centres undefined) | inconclusive: 70.8 µM [inhibitor, partial curve, poor fit]
48 | CSc1nc(N)c(N=Nc2ccc([As](=O)(O)O)cc2)c(=O)[nH]1 | inconclusive: 28.2 µM [inhibitor, full curve, poor fit]
49 | Cn1c(O)c(C(=Nc2ccccc2)SCc2ccc(Cl)cc2)c(=O)n(C)c1=O | inconclusive: 28.2 µM [inhibitor, full curve, poor fit]
50 | Cc1ccc(/C=C2/C(=O)NC(=O)N(CCc3ccc(F)cc3)C2=O)o1 | inconclusive: 44.7 µM [inhibitor, partial curve, poor fit]
51 | CCCCCn1c(NC(=O)c2ccco2)c(C(=O)OCC)c2nc3ccccc3nc21 | inconclusive: 79.4 µM [inhibitor, partial curve, poor fit]
52 | O=[N+]([O-])c1cccc(CN2CCN(Cc3ccc(Cl)cc3)CC2)c1 | inactive
53 | O=C1NC(=O)N(c2ccc3c(c2)OCO3)C(=O)/C1=C/c1ccsc1 | inconclusive: 50.1 µM [inhibitor, partial curve, poor fit]
54 | Cc1ccc2cc(C=C(C#N)C#N)c(Cl)nc2c1 | inconclusive: 50.1 µM [inhibitor, partial curve, poor fit]
55 | Cn1cccc1/C=C1/C(=O)NC(=O)N(Cc2ccc(F)cc2)C1=O | inconclusive: 50.1 µM [inhibitor, partial curve, poor fit]
56 | CS(=O)c1ccc(-c2nc(-c3ccc(F)cc3)c(-c3ccncc3)[nH]2)cc1 (centres undefined) | inconclusive: 2.99 µM [inhibitor, partial curve, poor fit]
57 | O=C(Cc1c(O)c2ccccc2oc1=O)c1ccc(F)cc1 | inconclusive: 100 µM [inhibitor, single point]
58 | CC(C)(O)C1O[C@H]2CC[C@@]3(C)[C@@](O)(CC[C@H]4Cc5c([nH]c6ccccc56)[C@@]43C)C2=CC1=O (some centres undefined) | inconclusive: 6.7 µM [inhibitor, partial curve, poor fit]
59 | CN1C[C@H](CNC(=O)OCc2ccccc2)C[C@@H]2c3cccc4c3c(cn4C)C[C@H]21 | inconclusive: 0.336 µM [inhibitor, full curve, poor fit]
